Reference: PubChem BioAssay AID1645886 (National Center for Advancing Translational Sciences (NCATS), 2021)
“And” between values parts separate entries of the source, which are not always exact repeats. Identical values can stand only once. Screen size: about 16,000 compounds; about 260 (1.6%) were called active. Inconclusive results, whose numbers are uncertain, are shown with a selection of clear calls. Calls come from the whole dose curve; as a rule, active = well fitted inhibition curve with a large enough effect; inconclusive = small, poorly fitted or top-dose-only effect; inactive = no such curve, though single readings can be large or run the other way. Potencies beside an inconclusive call are fits to weak or partial responses and may not hold up.

target: Rap guanine nucleotide exchange factor 4 (Homo sapiens) (UniProt Q8WZA2); assay: Validation qHTS for antagonist of cAMP-regulated guanine nucleotide exchange factor 4 (EPAC2); conditions: EPAC2 Rap1B BODIPY-GDP exchange, fluorescence; series mostly up to 112 µM; note: nearly all actives have a fitted effect of over 40% in size
Summary of the method: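 Fluorescent exchange read-out: 100 nM EPAC2 with 250 nM RAP1B–BODIPY-GDP and 50 uM GDP; BODIPY-GDP release lowers fluorescence. Read at 480/540 nm every 5 min for 30 min at room temperature; normalized to 6.5 mM cAMP.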
Potency is the fitted concentration of half-maximal effect; tags give direction and shape of the fitted curve.

Chain of UniProt Q8WZA2 (Q8WZA2 whole entry, looked up): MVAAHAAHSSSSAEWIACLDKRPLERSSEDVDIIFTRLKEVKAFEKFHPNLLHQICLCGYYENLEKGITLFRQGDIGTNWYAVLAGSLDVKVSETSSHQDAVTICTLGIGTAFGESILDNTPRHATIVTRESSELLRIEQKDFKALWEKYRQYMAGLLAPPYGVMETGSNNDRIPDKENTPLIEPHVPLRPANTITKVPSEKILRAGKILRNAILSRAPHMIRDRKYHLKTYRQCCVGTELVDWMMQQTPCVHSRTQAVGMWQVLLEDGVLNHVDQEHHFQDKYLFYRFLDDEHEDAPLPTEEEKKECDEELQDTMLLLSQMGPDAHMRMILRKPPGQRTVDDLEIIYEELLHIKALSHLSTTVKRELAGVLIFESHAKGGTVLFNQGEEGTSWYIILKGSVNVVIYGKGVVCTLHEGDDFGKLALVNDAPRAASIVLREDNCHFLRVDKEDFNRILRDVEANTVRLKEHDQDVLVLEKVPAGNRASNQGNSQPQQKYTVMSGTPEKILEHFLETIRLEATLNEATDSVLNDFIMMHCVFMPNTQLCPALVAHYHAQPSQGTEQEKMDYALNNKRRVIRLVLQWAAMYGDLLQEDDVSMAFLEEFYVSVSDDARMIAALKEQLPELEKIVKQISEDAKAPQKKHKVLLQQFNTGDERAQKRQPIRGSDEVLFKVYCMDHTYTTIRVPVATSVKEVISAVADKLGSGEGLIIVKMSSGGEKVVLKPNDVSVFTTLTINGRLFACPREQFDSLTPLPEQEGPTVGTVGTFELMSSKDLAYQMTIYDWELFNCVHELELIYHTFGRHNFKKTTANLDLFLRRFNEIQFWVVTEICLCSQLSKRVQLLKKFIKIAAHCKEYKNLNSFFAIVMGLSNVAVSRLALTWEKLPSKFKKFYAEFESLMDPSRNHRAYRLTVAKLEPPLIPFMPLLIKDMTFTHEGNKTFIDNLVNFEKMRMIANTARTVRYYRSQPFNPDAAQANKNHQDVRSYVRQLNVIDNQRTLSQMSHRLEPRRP

Question: How did the Potency turn out when `Cc1cc(C(=O)NCc2nnc3n2CCN(Cc2ccc4c(c2)Cc2ccccc2-4)CC3)c(C)o1` was run?
Answer: The Potency was inconclusive: 10 µM [inhibitor, full curve, poor fit].

Question: `CC(=O)c1ccc(F)c(-c2cc(C)cc3c2OC(CNC(=O)c2cnc4ccccn4c2=O)C3)c1` (stereo unspecified) was tested. Which Potency did it give?
Answer: Its Potency is inconclusive: 44.7 µM [inhibitor, partial curve, poor fit].

Question: For `CC(=O)N1CCC2(CCCN(Cc3cc(C(F)(F)F)cc(C(F)(F)F)c3)C2)CC1`, which Potency is on record?
Answer: The Potency was inconclusive: 1.58 µM [inhibitor, full curve, poor fit].

Question: Which Potency does the source give for `Cc1csc[n+]1CC(=O)c1ccccc1` here?
Answer: The Potency was inconclusive: 79.4 µM [inhibitor, partial curve, poor fit].

Question: For `N#C/C(=C\c1ccc(O)c(O)c1)C(=O)c1ccc(O)c(O)c1`, which Potency is on record?
Answer: The Potency was inconclusive: 28.2 µM [inhibitor, full curve, poor fit].

Question: How did the Potency turn out when `COc1ccc(-c2cc(C)cc3c2OC(CNC(=O)/C=C/c2ccncc2)C3)nn1` (stereo unspecified) was run?
Answer: Its Potency is inconclusive: 39.8 µM [inhibitor, partial curve].

Question: `Cc1c(C)c2c(c(C)c1OC(=O)CCC(=O)OCCO)CC[C@@](C)(CCC[C@H](C)CCC[C@H](C)CCCC(C)C)O2` was tested. Which Potency did it give?
Answer: Its Potency is “inactive”.

Question: For `O=S1(=O)CCOC[C@H](c2ccccc2)N1Cc1ccccc1`, which Potency is on record?
Answer: Its Potency is inconclusive: 56.2 µM [inhibitor, partial curve, poor fit].

Question: Which Potency does the source give for `O=C(c1cnn(-c2nccc(-c3ccccc3F)n2)c1C1CC1)N1CCCCC1c1cccnc1` (stereo unspecified) here?
Answer: Its Potency is “inactive”.

Question: How did the Potency turn out when `C[C@@H](c1ncncc1F)C(O)(Cn1cncn1)c1ccc(F)cc1F` (stereo partly specified) was run?
Answer: The Potency was “inactive”.

Question: How did the Potency turn out when `Cc1ccccc1-c1ccc2ncnc(N3CCOCC3)c2c1` was run?
Answer: Its Potency is inconclusive: 35.5 µM [inhibitor, partial curve].

Question: With `COc1ccccc1C1CN(Cc2cccc3c2OCO3)Cc2ccccc2O1` (stereo unspecified) as the compound, how does the Potency read?
Answer: Its Potency is inconclusive: 63.1 µM [inhibitor, partial curve, poor fit].

Question: `Cc1ccc(C)c(S(=O)(=O)NCc2nc(N3CCCC3)c3cc(Cl)ccc3n2)c1` was tested. Which Potency did it give?
Answer: The Potency was “inactive”.

Question: Which Potency does the source give for `COC(=O)C[C@H]1c2ccccc2S(=O)(=O)N1c1cccc(OC)c1` here?
Answer: Its Potency is inconclusive: 100 µM [inhibitor, single point].

Question: How did the Potency turn out when `O=c1c(-c2ccccc2)nc2cncnc2n1Cc1ccc(F)cc1` was run?
Answer: The Potency was inconclusive: 3.55 µM [inhibitor, partial curve, poor fit].

Question: How did the Potency turn out when `Cc1cc(C)n2nc(C(=O)NCC3Cc4cccc(-c5ccc(S(C)(=O)=O)cc5)c4O3)cc2n1` (stereo unspecified) was run?
Answer: The Potency was “inactive”.

Question: Which Potency does the source give for `COc1ccc(Oc2ncc3ncc(=O)n(-c4ccc(OC)cc4)c3n2)cc1` here?
Answer: The Potency was inconclusive: 100 µM [inhibitor, partial curve, poor fit].

Question: Which Potency does the source give for `CCCCCCc1ccc(N2C[C@H](Cc3ccccc3)[C@@H](CC(=O)NCc3ccc(OC)cc3)C2=O)cc1` here?
Answer: The Potency was inconclusive: 63.1 µM [inhibitor, partial curve, poor fit].

Question: `c1cnc2c(c1)ccc1cccnc12` was tested. Which Potency did it give?
Answer: The Potency was inconclusive: 89.1 µM [inhibitor, single point].

Question: Which Potency does the source give for `COc1ccc(OC)c(C(=O)N(Cc2cc3cccc(C)c3nc2N2CCC(O)CC2)C2CC2)c1` here?
Answer: The Potency was inconclusive: 100 µM [inhibitor, single point].

Question: How did the Potency turn out when `N#CCCn1c(=O)c(-c2ccc(Cl)cc2)nc2cnc(Nc3ccccc3)nc21` was run?
Answer: Its Potency is “inactive”.

Question: Which Potency does the source give for `O=C(c1ccco1)N1CCC2(CCN(Cc3cc(C(F)(F)F)cc(C(F)(F)F)c3)CC2)CC1` here?
Answer: The Potency was inconclusive: 89.1 µM [inhibitor, partial curve, poor fit].

Question: How did the Potency turn out when `CCC(Cc1c(I)cc(I)c(N)c1I)C(=O)O` (stereo unspecified) was run?
Answer: Its Potency is inconclusive: 56.2 µM [inhibitor, partial curve, poor fit].

Question: For `CN1CCN(C2=Cc3ccccc3Oc3ccc(Cl)cc32)CC1`, which Potency is on record?
Answer: Its Potency is inconclusive: 50.1 µM [inhibitor, partial curve] and inconclusive: 50.1 µM [inhibitor, partial curve, poor fit].

Question: How did the Potency turn out when `COc1ncc2nc(-c3ccccc3)c(=O)n(Cc3cccs3)c2n1` was run?
Answer: The Potency was inconclusive: 70.8 µM [inhibitor, partial curve, poor fit].

Question: `COc1c2ccoc2nc2c(OC)c(O[C@@H]3O[C@H](C)[C@@H](O)[C@@H](O)[C@H]3O)ccc12` was tested. Which Potency did it give?
Answer: The Potency was “inactive”.

Question: For `COc1ccc(Oc2ncc3nc(C)c(=O)n(Cc4cccs4)c3n2)cc1`, which Potency is on record?
Answer: The Potency was inconclusive: 31.6 µM [inhibitor, partial curve].

Question: For `C[C@@H](O)[C@H]1C(=O)N2C(C(=O)[O-])=C(SC3Cn4cnc[n+]4C3)[C@H](C)[C@H]12` (stereo partly specified), which Potency is on record?
Answer: The Potency was “inactive”.

Question: Which Potency does the source give for `O=c1ccn([C@@H]2O[C@H](COP(=O)(O)OP(=O)(O)OP(=O)(O)O)[C@@H](O)[C@H]2O)c(=O)[nH]1` here?
Answer: Its Potency is “inactive”.

Question: `O=S(=O)(c1ccccc1)N1CCC[C@@]2(CCN(Cc3cc(C(F)(F)F)cc(C(F)(F)F)c3)C2)C1` was tested. Which Potency did it give?
Answer: Its Potency is inconclusive: 50.1 µM [inhibitor, partial curve].

Question: For `COc1cccc(CN2CCC(n3cc(C(=O)N4CCCCC4)nn3)CC2)c1OC`, which Potency is on record?
Answer: The Potency was inconclusive: 1.41 µM [inhibitor, full curve, poor fit].

Question: Which Potency does the source give for `CN(C)c1ccc(C(=C2C=CC(=[N+](C)C)C=C2)c2ccc(N(C)C)cc2)cc1` here?
Answer: The Potency was inconclusive: 56.2 µM [inhibitor, partial curve].

Question: With `COC(=O)CC1C2(C)CC34OC5(C)O[C@@]6(C7/C(=C(/OC)C(C)C)C(=O)OC(c8ccoc8)[C@@]7(C)C(OC(=O)C(C)C)C(OC)[C@]6(O5)[C@@]13C)C(OC)[C@]4(OC)C2OC(C)=O` (stereo partly specified) as the compound, how does the Potency read?
Answer: Its Potency is inconclusive: 7.08 µM [inhibitor, full curve].

Question: How did the Potency turn out when `CCc1nc2cc(C(=O)N3CCC[C@H]3C(=O)OC)cc(NC(=O)c3ccccc3OC)c2n1C` was run?
Answer: Its Potency is “inactive”.

Question: How did the Potency turn out when `CON` was run?
Answer: Its Potency is “inactive”.

Question: How did the Potency turn out when `C=C(C)C1CC=C(CO)CC1` (stereo unspecified) was run?
Answer: Its Potency is “inactive”.

Question: With `CN(Cc1ccco1)c1ncnc2ccc(-c3ccccc3C(F)(F)F)cc12` as the compound, how does the Potency read?
Answer: The Potency was inconclusive: 39.8 µM [inhibitor, partial curve, poor fit].

Question: For `CC(C)C(NC(=O)c1ccoc1)c1nnc2n1CCN(Cc1ccc3c(c1)Cc1ccccc1-3)CC2` (stereo unspecified), which Potency is on record?
Answer: The Potency was inconclusive: 70.8 µM [inhibitor, single point].

Question: `O=C1CC[C@@H](OCc2ccccc2)CCN1CC[C@H](Sc1ccccc1)c1ccccc1` was tested. Which Potency did it give?
Answer: The Potency was inconclusive: 5.62 µM [inhibitor, full curve, poor fit].

Question: For `O=C(O)CCC/C=C\C[C@@H]1[C@@H](/C=C/[C@@H](O)COc2cccc(Cl)c2)[C@H](O)C[C@@H]1O`, which Potency is on record?
Answer: The Potency was “inactive”.

Question: Which Potency does the source give for `CC[C@]1(c2ncc[nH]2)Cc2ccccc2O1` here?
Answer: Its Potency is active: 15.8 µM.

Question: Which Potency does the source give for `C[C@H](NC(=O)OC(C)(C)C)C(=O)c1ccco1` here?
Answer: The Potency was inconclusive: 28.2 µM [inhibitor, single point].

Question: `O=C(c1cnccn1)N1CCC[C@@]2(CCN(Cc3cc(C(F)(F)F)cc(C(F)(F)F)c3)C2)C1` was tested. Which Potency did it give?
Answer: Its Potency is inconclusive: 50.1 µM [inhibitor, partial curve, poor fit].

Question: For `Nc1ccc(S(=O)(=O)Nc2ccccn2)cc1`, which Potency is on record?
Answer: The Potency was inconclusive: 89.1 µM [inhibitor, single point].

Question: For `Cc1c(CCO)sc[n+]1CC(=O)c1ccc(F)cc1`, which Potency is on record?
Answer: Its Potency is inconclusive: 20 µM [inhibitor, partial curve, poor fit].

Question: Which Potency does the source give for `O=Cc1ccc(O)cc1` here?
Answer: The Potency was “inactive”.

Question: `Cc1cnc(C)c(-c2ccc(F)c3c2OC(CNC(=O)/C=C/c2cccs2)C3)n1` (stereo unspecified) was tested. Which Potency did it give?
Answer: The Potency was “inactive”.

Question: How did the Potency turn out when `Cc1ccccc1CN1[C@H](C)[C@H](c2ccccc2)OCCS1(=O)=O` was run?
Answer: The Potency was inconclusive: 11.2 µM [inhibitor, full curve].

Question: For `O=c1cnc2cnc(OCc3ccccc3)nc2n1Cc1ccc(F)cc1`, which Potency is on record?
Answer: Its Potency is inconclusive: 44.7 µM [inhibitor, partial curve, poor fit].

Question: How did the Potency turn out when `COc1cc(-c2noc(C)c2C#Cc2ccsc2)cc(OC)c1OC` was run?
Answer: Its Potency is inconclusive: 3.16 µM [inhibitor, partial curve, poor fit].

Question: How did the Potency turn out when `COc1cc2c(cc1O)CCN[C@]21CS[C@@H]2c3c(OC(C)=O)c(C)c4c(c3[C@H](COC1=O)N1[C@@H]2[C@H]2c3c(cc(C)c(OC)c3O)C[C@@H]([C@@H]1O)N2C)OCO4` was run?
Answer: Its Potency is “inactive”.

Question: How did the Potency turn out when `Cc1ccccc1-c1nccc(NCc2cccnc2)n1` was run?
Answer: Its Potency is inconclusive: 63.1 µM [inhibitor, partial curve, poor fit].

Question: `NCCOB(c1ccccc1)c1ccccc1` was tested. Which Potency did it give?
Answer: Its Potency is inconclusive: 50.1 µM [inhibitor, partial curve].

Question: H-EQKQLQ-OH was tested. Which Potency did it give?
Answer: Its Potency is inconclusive: 8.91 µM [inhibitor, single point].

Question: For `O=C(c1ccco1)N1CCC2(CC1)CN(C(c1ccccc1)c1ccccc1)C2`, which Potency is on record?
Answer: Its Potency is inconclusive: 10 µM [inhibitor, full curve, poor fit].

Question: Which Potency does the source give for `CCOC(=O)c1c(C)cc(O)cc1O` here?
Answer: Its Potency is inconclusive: 56.2 µM [inhibitor, partial curve, poor fit].

Question: `COc1cc(N)c(Cl)cc1C(=O)N[C@H]1CCN(CCCOc2ccc(F)cc2)C[C@@H]1OC` was tested. Which Potency did it give?
Answer: Its Potency is inconclusive: 56.2 µM [inhibitor, partial curve, poor fit].

Question: With `COc1ccc(-c2cn(CCc3c[nH]c4ccccc34)nn2)cc1` as the compound, how does the Potency read?
Answer: Its Potency is inconclusive: 15.8 µM [inhibitor, partial curve, poor fit].

Question: Which Potency does the source give for `Cc1ccc(SC[C@H](C)CN2CC[C@H](C)CCC2=O)cc1` here?
Answer: Its Potency is inconclusive: 56.2 µM [inhibitor, partial curve, poor fit].

Question: Which Potency does the source give for `CCCn1c(=O)[nH]c2nc(-c3ccc(S(=O)(=O)O)cc3)[nH]c2c1=O` here?
Answer: The Potency was inconclusive: 79.4 µM [inhibitor, partial curve].

Question: With `Cc1ccccc1-c1nc(N(C)Cc2ccco2)c2ccccc2n1` as the compound, how does the Potency read?
Answer: Its Potency is inconclusive: 20 µM [inhibitor, full curve].
